Molecules are shown by their SMILES.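 Interpolation was linear, between the two tested concentrations surrounding the appropriate level; five concentrations were tested over 48 hours in 96-well plates. Abbreviation: GI50, concentration required for 50% inhibition of growth.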 Activity calls are given as the source filed them. No stated cut-off is given here; in the data, active = GI50 up to about 1.1 µM and inactive = higher.

For this assay, the system named is NCI-H322M. Description: NCI-60 cell line screen, 48 h.
Consider `NC(=O)Nc1ccc(S(=O)(=O)Nc2ccc(S(N)(=O)=O)cc2)cc1`, for which the GI50 is inactive: > 100 µM.

As for `NS(=O)(=O)c1nnc(NC(=O)C23CC4CC(CC(C4)C2)C3)s1`, the GI50 was inactive: 16 µM.

Take `CN(C)S(=O)(=O)c1ccc(Nc2ccc(O)c3c2C(=O)c2c([N+](=O)[O-])ccc(O)c2C3=O)cc1`: the GI50 was inactive: > 100 µM.

`CC(=O)N1C=Cc2c(c(C)c3c([nH]c4ccccc43)c2C)C1`: the GI50 was inactive: 7.41 µM.

Regarding `Cc1nc2c(O)nc3ccccc3c2o1`, the GI50 was inactive: > 100 µM.

Consider `CC(C)=CCNc1ncnc2c1c(C#N)cn2C1OC(CO)C(O)C1O` (configuration not stated), for which the GI50 was inactive: 2.08 µM.

For the molecule `COc1cc2c(/C=C3/C(=O)N(C)c4ccc(O)cc43)c(Cl)[nH]c2cc1C`, the GI50 is active: 0.879 µM.

In the case of `COc1ccc(NC(=O)/C(=C/c2ccccc2)C(C)=O)cc1`, the GI50 was inactive: 11.9 µM.

In the case of `O=S(=O)(c1ccc(/N=C2\NC(c3ccc(O)cc3)(c3ccccc3O)c3ccccc32)cc1)c1ccc(/N=C2/NC(c3ccc(O)cc3)(c3ccccc3O)c3ccccc32)cc1` (configuration not stated), the GI50 is inactive: 4.21 µM.

Turning to `NC(=O)C/C=C/CC(N)=O`, the GI50 was inactive: > 100 µM.

For `O=C/C(=C(/Br)I)c1ccccc1`, the GI50 was inactive: 15.4 µM.

As to `Cc1[nH]n(-c2ccccc2)c(=O)c1C(N(CCc1ccccc1)C1=NCC(C)S1)(C(F)(F)F)C(F)(F)F` (configuration not stated), the GI50 is inactive: 21.6 µM.

As to `COCC1OC([P+](c2ccccc2)(c2ccccc2)c2ccccc2)CC(OC)C1OC` (configuration not stated), the GI50 is inactive: 72.4 µM.

For `CN(C)c1ccc(C2CC(=O)C(C#N)=C(c3ccccc3)NN2C)cc1` (configuration not stated), the GI50 was inactive: 6.56 µM.

With `CCOC(=O)CCC(NC(=O)c1ccc(/N=C/c2nc3cc(C(F)(F)F)ccc3nc2-c2ccccc2)cc1)C(=O)OCC` (configuration not stated), the GI50 is inactive: > 50 µM.

`COc1ccc(C2SCC(=O)N2NC(=O)C(C)Oc2ccc(Cl)cc2Cl)cc1` (configuration not stated): the GI50 is inactive: 31 µM.

Consider `O=[N+]([O-])c1ccc(N2N=C(c3ccc4ccccc4c3O)CC2c2ccc(Cl)cc2)c([N+](=O)[O-])c1` (configuration not stated), for which the GI50 is inactive: 32.1 µM.

On to `c1ccc(CNn2nnc3ccccc32)cc1`, for which the GI50 was inactive: > 100 µM.

`O=C1C2=Cc3ccccc3OC2(O)Oc2cc3ccccc3cc21` (configuration not stated): the GI50 was inactive: > 100 µM.

Consider `Nc1ncnc2c1ccn2CC#CCO`, for which the GI50 was inactive: > 100 µM.

With `COc1cc2c(/C=C3/C(=O)Nc4ccc(Cl)cc43)c(Cl)n(Cc3ccccc3)c2cc1C`, the GI50 was inactive: 2.15 µM.

Regarding `CCCCCCc1cc2cc(-c3csc(CC#N)n3)c(=O)oc2cc1O`, the GI50 is inactive: > 100 µM.

With `NCCCCC(N)C(=O)NCCNc1ccc(NCCNC(=O)C(N)CCCCN)c2c1C(=O)c1ccccc1C2=O` (configuration not stated), the GI50 is inactive: 21.2 µM.

Regarding `c1ccc2c(c1)OCCc1cn[nH]c1-2`, the GI50 was inactive: > 100 µM.

On to `CSC1CC2C(CC1(C)SC)C2(C)C` (configuration not stated), for which the GI50 was inactive: > 100 µM.

For `O=C1C(Cl)=C(Cl)C(Cl)(Cl)C(Cl)C1(Cl)Cl` (configuration not stated), the GI50 was inactive: 13.5 µM.

Regarding `CC1=C(/C=C/C2=CC(=C\C(=O)O)/CC(C3=C(C)CCCC3(C)C)C2)C(C)(C)CCC1` (configuration not stated), the GI50 was inactive: 12.6 µM.

On to `O=C(O)C(C(C(=O)O)P(=O)(O)O)P(=O)(O)O` (configuration not stated), for which the GI50 was inactive: > 100 µM.

For the molecule `CC(C)(C)[Si](C)(C)Oc1cc(CO)cc2c1cc(=N)o[n+]2[O-]`, the GI50 was inactive: > 10 µM.

On to `CCN(CC)CCNc1n[n+]([O-])c2cc([N+](=O)[O-])ccc2[n+]1[O-]`, for which the GI50 is inactive: 2.34 µM.

For `CNC(=O)OCc1c(COC(=O)NC)c(C)n(-c2ccc(Br)cc2)c1C`, the GI50 was inactive: 15.1 µM.

For `COc1ccc(SC(C)(SC)c2ccccn2)c(OC)n1` (configuration not stated), the GI50 is inactive: > 100 µM.

On to `COc1ccccc1C(=O)N(C)c1ccc(Cl)c(C(=O)OC(C)C)c1`, for which the GI50 was inactive: > 100 µM.

With `CC1(C)C2CC(O)C1(C)CC2=O` (configuration not stated), the GI50 was inactive: 39.5 µM.

Regarding `CCOc1ccc(/N=C\c2cc(OC)c(OC)c(OC)c2)cc1`, the GI50 is inactive: > 100 µM.

As for `O=C(COc1ccc(Cl)c(Cl)c1)Nc1ccc[n+](Cc2ccc(S(=O)(=O)F)c(Cl)c2)c1`, the GI50 is inactive: > 100 µM.

Regarding `CN(CCN)[C@H](CSSC[C@@H](c1ccccc1O)N(C)CCN)c1ccccc1O`, the GI50 is inactive: 10.7 µM.

Consider `O=S1OC[C@H](CCCl)O1` (some centres not stated), for which the GI50 was inactive: > 100 µM.

`N#Cc1ccc(C(=O)/C=C/c2ccc(O)c(O)c2)cc1`: the GI50 is inactive: 16.3 µM.

For `Cc1c(C)c2cc3c(=O)ccoc3c(C)c2oc1=O`, the GI50 was inactive: > 100 µM.

Take `CC(C)Nc1[nH]c(C(=O)c2ccccc2)c(N)c1C(=S)Nc1ccccc1`: the GI50 is inactive: 50.2 µM.

Regarding `O=C(Nc1cc(Cl)c(Cl)cc1Cl)C(=O)C1C(=O)NC(=S)NC1=O`, the GI50 is inactive: > 100 µM.

With `CCOC(=O)c1cnc2[nH]ccn2c1=O`, the GI50 was inactive: > 10 µM.

Turning to `COc1ccccc1NC(=O)C1=C(C)NC(C)=C(C(=O)Nc2ccccc2OC)C1c1ccco1`, the GI50 was inactive: 10.9 µM.

As to `C[C@@H]1C[C@H](O)[C@]2(O)O[C@@H]3C[C@@]4(C=O)[C@@H](CC=C5[C@@H]4CC[C@]4(C)[C@@H](C6=CC(=O)OC6)CC[C@]54O)C[C@H]3O[C@@H]2O1`, the GI50 was active: < 0.018 µM.

For `Cc1cc(Cl)ccc1NC(=O)/C(=N\NC(C)(C)C)C(C#N)c1nc(-c2ccc([N+](=O)[O-])cc2)cs1` (configuration not stated), the GI50 was inactive: > 100 µM.

`Cc1c2ccccc2c(C)c2c3c(ccc12)C(=O)C=CC3=O`: the GI50 is inactive: > 85.5 µM.

In the case of `O=C(O)COc1ccc2c3c1C(=O)CCC3CO2` (configuration not stated), the GI50 was inactive: > 100 µM.

Turning to `CCN(CC)c1ccc2c(c1)Oc1ccc(N(CC)CC)cc1C21Oc2ccccc2-c2c1c1ccccc1n2CC` (configuration not stated), the GI50 is inactive: 3.66 µM.

For `CC(C)(C)N1CC2(CCCCC2)C1=O`, the GI50 was inactive: > 100 µM.

On to `COC(=O)c1ccccc1/C=C1\Cc2ccc3ccccc3c2C1C` (configuration not stated), for which the GI50 was inactive: 72.9 µM.

On to `OCC1C(/C=C/c2ccoc2)ON2CCCC12` (configuration not stated), for which the GI50 was inactive: > 100 µM.

Turning to `COP(=O)(CC(=O)C1OC(C)(C)OC1C(O)COCc1ccccc1)OC` (configuration not stated), the GI50 was inactive: > 100 µM.

In the case of `CCOC(=O)C1COc2cc(-c3cc(=O)c4ccccc4o3)ccc2O1` (configuration not stated), the GI50 is inactive: > 100 µM.

`O=C1Sc2cc3ccccc3cc2C(=O)Sc2cc3ccccc3cc21`: the GI50 was inactive: > 100 µM.

With `COC1/C=C\OC2(C)Oc3c(C)c(O)c4c(O)c(c(/C=N\OCCCc5ccccc5)c(O)c4c3C2=O)NC(=O)/C(C)=C\C=C/C(C)C(O)C(C)C(O)C(C)C(OC(C)=O)C1C` (configuration not stated), the GI50 is inactive: 10.1 µM.

Turning to `CC1=C(c2cc(C(=O)Nc3cccc(C(F)(F)F)c3)nc(NC#N)n2)Sc2ccccc2N1`, the GI50 is inactive: > 100 µM.

Turning to `O=C1OC(c2ccc(Cl)cc2)=N/C1=C\c1ccccc1`, the GI50 was inactive: > 100 µM.

Consider `O=S1(=O)CCC2=CC(C(F)(F)F)=CC(C(F)(F)F)=CN21`, for which the GI50 is inactive: 2.51 µM.

Take `NN=C(CC(O)(C(F)(F)Cl)C(F)(F)Cl)CC(O)(C(F)(F)Cl)C(F)(F)Cl`: the GI50 is inactive: 6.01 µM.

As for `COc1ccc(/C=N/CCC/N=C/c2ccc(OC)cc2O)c(O)c1`, the GI50 is inactive: 32 µM.

As for `CN(C)c1ccc(/C=N\N2C(=O)c3ccccc3C2=O)cc1`, the GI50 was inactive: > 100 µM.

As to `Nc1nc2cc(COc3ccc(C(=O)O)cc3)ccc2nc1-c1ccccc1`, the GI50 was inactive: > 10 µM.

Regarding `COC(=O)c1ccc(Oc2nc3ccccc3nc2-c2cccs2)cc1`, the GI50 was inactive: > 100 µM.

With `CCCCCCCCCCC1OC([C@@H](O)CC[C@H](O)C2CC[C@@H](CCCCCCCC(O)CC3=CC(C)OC3=O)O2)CCC1O` (some centres not stated), the GI50 is inactive: 10.1 µM.

Regarding `O=C(O)CN(CC(=O)O)Cc1cc(C#Cc2ccc(C#Cc3ccccc3)cc2)cc(CN(CC(=O)O)CC(=O)O)n1`, the GI50 was inactive: 21.1 µM.

As to `C/C(=C1\N=C(c2ccccc2)OC1=O)c1ccccc1`, the GI50 was inactive: > 100 µM.

In the case of `CC1=CC(=O)c2cccc(O)c2C1=O`, the GI50 is inactive: 18.3 µM.

Turning to `CC(=O)n1cc(OP(=O)(Oc2ccccc2)Oc2ccccc2)c2ccccc21`, the GI50 was inactive: 76.9 µM.

As to `Cc1cn(C2CC(N=[N+]=[N-])C(CO)O2)c(=O)n(CCCCBr)c1=O` (configuration not stated), the GI50 is inactive: > 100 µM.

On to `CC1CC(C)C(C#N)N(C)c2ccccc21` (configuration not stated), for which the GI50 is inactive: > 100 µM.

For `C#CC[C@@]12CC(=O)C[C@@H]1CCC1(C2)OCCO1.C#CC[C@]12CC(=O)CC[C@H]1CC(=O)C2`, the GI50 is inactive: > 100 µM.

In the case of `CN(C)CCN(C)CCC(=O)/C=C/c1ccccc1`, the GI50 was inactive: > 100 µM.

As for `CO/N=C(\C(=O)Nc1cncs1)c1csc(NC(c2ccccc2)(c2ccccc2)c2ccccc2)n1`, the GI50 is inactive: > 10 µM.

`Cc1cc(N(CCC#N)CCC#N)ccc1C(/N=N\c1ccc([N+](=O)[O-])cc1)=N\NC(=O)c1cc(Cl)ccc1O`: the GI50 was inactive: 26.2 µM.

Take `C[N+](C)(C)CC(CC(=O)[O-])C1CC1` (configuration not stated): the GI50 was inactive: > 100 µM.

Take `O=[N+]([O-])c1cc(/N=N/c2c(O)ccc3cc(S(=O)(=O)O)ccc23)c(O)c([N+](=O)[O-])c1`: the GI50 was inactive: > 100 µM.

Turning to `COc1ccc(NS(=O)(=O)c2ccc(/N=C3\C=C(Nc4ccc(S(=O)(=O)Nc5ccc(OC)nn5)cc4)C(=O)c4ccccc43)cc2)nn1`, the GI50 was inactive: 17.8 µM.

In the case of `Nc1c(S(=O)(=O)O)cc(S(=O)(=O)O)c2ccc(/N=N/c3ccccc3)c(O)c12`, the GI50 is inactive: > 100 µM.

With `O=C(O)C(Cc1c[nH]c2ccccc12)N1C(=O)c2ccccc2C1=O` (configuration not stated), the GI50 is inactive: > 100 µM.

Turning to `Oc1cc2c3c(c1)c1cc4c(cc1c[n+]3CC2)OCO4`, the GI50 is inactive: 3.61 µM.

On to `CCCN1C(=O)CNC(=O)c2[nH]cnc21`, for which the GI50 is inactive: > 100 µM.

Values taken from ChEMBL document CHEMBL1201862, “PubChem BioAssay data set” (2004).
